Out of some 45,000 compounds screened, about 200 (0.44%) were called active. About 7% were inconclusive and are not listed. Calls come from the whole dose curve; as a rule, active = well fitted activation curve with a large enough effect; inconclusive = small, poorly fitted or top-dose-only effect; inactive = no such curve, though single readings can be large or run the other way. This is one part of the list.
Potency is the fitted concentration of half-maximal effect.

The nature of the assay: qHTS of TDP-43 Inhibitors: NCGC Sytravon Library Screen. For growth rescue (activation): 0% is about no effect. Note: nearly all actives have a fitted effect of over 55% in size. As to conditions: yeast TDP-43 toxicity rescue, BacTiter-Glo growth, 24 h; series mostly up to 46.1 µM; growth rescue (activation): at the top concentration. The method in brief:
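TDP-43-expressing yeast, pregrown in raffinose, seeded at OD600 0.02 in galactose medium with compound for 24 hr at 30 deg C. Growth read by BacTiter-Glo luminescence, so rescue of toxicity appears as activation.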
Background: Quantitative high-throughput screening tests each substance at several concentrations.
`COc1ccc(N=C2SC(CC(=O)Nc3ccccc3)C(=O)N2CC2CCCO2)cc1` (stereo not given): the “growth rescue (activation)” value was inactive: 11.3%.

`COc1cc(/C=C/C(=O)O)cc(S(=O)(=O)NC2CC2)c1OC`: the “growth rescue (activation)” value is inactive: -1.07%.

In the case of `CC1(Cc2cccc(F)c2)C(=O)Nc2ccc(-c3cccnc3)cc21` (stereo not given), the “growth rescue (activation)” value was inactive: -16.9%.

For the compound `COc1ccc(NC(=O)c2ccco2)cc1NC(=O)c1ccccc1`, the “growth rescue (activation)” value is inactive: 6.83%.

Regarding `O=C(O)Cc1c(C(=O)O)nnn1-c1cccc(C(F)(F)F)c1`, the “growth rescue (activation)” value is inactive: 18.1%.

`O=[N+]([O-])c1cc(C(F)(F)F)cc([N+](=O)[O-])c1N1CCCNCC1`: the “growth rescue (activation)” value was inactive: 11.5%.

As to `COc1ccc(O)c(C(=O)c2cnc3c(c2)c(C)nn3C)c1`, the “growth rescue (activation)” value was inactive: -11.1%.

For `NS(=O)(=O)c1ccc(CNc2nc(-c3cccnc3)nc3ccccc23)cc1`, the “growth rescue (activation)” value is inactive: 3.93%.

For `O=C(CN1CCc2ccccc21)NCc1ccccc1Cl`, the Potency was active: 12.6 µM.

As for `Clc1cccc(Cl)c1C1Nc2cccc3cccc(c23)N1`, the “growth rescue (activation)” value was inactive: -4.07%.

`O=C(C1CC1)N1CCN=C1SCc1ccc(Cl)cc1`: the “growth rescue (activation)” value was inactive: -5.58%.

On to `CC1CCC2(CC1)NC(=O)N(NC(=O)CCc1c[nH]c3ccccc13)C2=O` (stereo not given), for which the “growth rescue (activation)” value was inactive: 18.3%.

As to `CCCCOC(=O)C1=C(N)N2C(=O)C(C)SC2=C(C(=O)OCC)C1c1ccc(O)c(OC)c1` (stereo not given), the “growth rescue (activation)” value was inactive: -56%.

Consider `Cc1ccc(-c2nnn(CC(=O)N(CCCO)C(C(=O)NC3CCCC3)c3ccc(F)cc3)n2)o1` (stereo not given), for which the “growth rescue (activation)” value was inactive: 3.36%.

On to `COc1ccccc1NC(=O)N1CCCC1C(=O)NCc1cccs1` (stereo not given), for which the “growth rescue (activation)” value is inactive: -7.13%.

In the case of `COc1ccc(NC(=O)COc2ccc(C(=O)OCC(=O)N(C(C)C)C(C)C)cc2OC)cc1`, the “growth rescue (activation)” value was inactive: 8.22%.

With `Cn1c(CNc2cccc(C(F)(F)F)c2)n[nH]c1=S`, the “growth rescue (activation)” value is inactive: 7.25%.

On to `CCOc1ccc(/C=N/NC(=O)C(C)Sc2ccccn2)cc1OCC` (stereo not given), for which the “growth rescue (activation)” value was inactive: -0.858%.

On to `CCOC(=O)C1CCCN(C(=O)c2cc(F)cc(F)c2)CC1` (stereo not given), for which the “growth rescue (activation)” value was inactive: 8.32%.

As to `Cc1ccc(-c2cc(C(=O)NC3CCCCC3)no2)cc1`, the “growth rescue (activation)” value was inactive: 19.2%.

On to `CC(=O)Nc1ccc(-c2nc3ccccc3c(=O)o2)cc1`, for which the “growth rescue (activation)” value is inactive: 7.17%.

`Cc1ccc(/C(O)=C2\C(=O)C(=O)N(Cc3cccnc3)C2c2ccccc2[N+](=O)[O-])cc1` (stereo not given): the “growth rescue (activation)” value was inactive: 7.57%.

With `CC(=O)Nc1ccc(S(=O)(=O)NNC(=O)COc2cccc3ccccc23)cc1`, the “growth rescue (activation)” value was inactive: 11.3%.

With `COc1cc(NC(=S)N2CCc3ccccc3C2)cc(OC)c1`, the “growth rescue (activation)” value was inactive: 3.77%.

For the compound `CC(C)Cc1nc(S(=O)(=O)c2ccc(Cl)cc2)c(N2CCOCC2)o1`, the “growth rescue (activation)” value is inactive: -8.05%.

Regarding `O=C(NCCCn1ccnc1)c1cc2ccccc2oc1=O`, the “growth rescue (activation)” value is inactive: 0.949%.

`Cc1ccc(NC(=O)CCn2c(=O)[nH]c3ccsc3c2=O)cc1C`: the “growth rescue (activation)” value is inactive: 15.1%.

As for `CN(C)CCCNc1c2ccccc2nc2ccccc12`, the “growth rescue (activation)” value is inactive: 9.8%.

For `CCOC(=O)C1(Cc2cccc(OC)c2)CCN(C/C=C/c2ccccc2)CC1`, the “growth rescue (activation)” value was inactive: 12.9%.

For `COCCn1c(CN2CCN(C(c3ccccc3)c3ccccc3)CC2)nc2c1c(=O)n(C)c(=O)n2C`, the “growth rescue (activation)” value is inactive: 4.17%.
